The supplement of paper PMC4466236
Whole data set: some 33,000 sequences, median “E-score (dimensionless, -0.5 to 0.5)” near -0.058, cut for the highest 2% near 0.35. Some of the results follow.

test system: MvaT; experiment: PBM 8-mer E-score (mean of HK and ME arrays) (E-score (dimensionless, -0.5 to 0.5)); higher = stronger relative binding preference; most listed sequences are background and not binding sites
Method in brief: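 Reported values are rank-based E-scores, taken as the mean of two universal arrays and parsed with a custom script. Each 8-mer score falls between -0.5 and 0.5. The arrays, ME and HK, were double-stranded 60-mers with a constant 25-mer primer region and a variable 35-mer region covering all 8-mers. They were probed, by an earlier protocol, with full-length P. aeruginosa MvaT carrying an N-terminal glutathione S-transferase fusion.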

| Sequence | PBM 8-mer E-score |
| --- | --- |
| GACACGGC | -0.227 |
| ATCATTTA | 0.275 |
| CCATGGAA | 0.063 |
| GTGTGGAA | 0.0597 |
| CTCTGTTA | 0.0156 |
| ATTGGAAC | 0.154 |
| AATGACCT | -0.158 |
| GCACTGTA | 0.0342 |
| CTACATCA | -0.0241 |
| TAGTATCA | 0.0901 |
| GAAAGGAA | -0.107 |
| AGGTGATG | -0.263 |
| ATAGACGG | -0.169 |
| AGCGAGAG | -0.0951 |
| CTGACCAG | -0.161 |
| TAACTGTA | 0.28 |
| AGTTACGC | 0.143 |
| GCCACGAC | -0.0787 |
| AGTAGAGG | -0.118 |
| AAGGGTTC | -0.233 |
| ACTTATTG | 0.29 |
| ATTATGTG | 0.261 |
| AAACTGAA | 0.115 |
| ACGACCGG | -0.128 |
| CGAGTTCA | 0.00938 |

| Sequence | PBM 8-mer E-score |
| --- | --- |
| AAGGATAC | -0.0729 |
| GGGCCTAA | -0.25 |
| CCTTTACA | 0.0839 |
| CCACGATA | 0.0949 |
| ATGTCGTC | -0.187 |
| ACTTCGCC | -0.0555 |
| CTCTAATA | 0.364 |
| ACCTCGTG | -0.139 |
| AACAGCCA | -0.0713 |
| GGATAGAA | 0.0177 |
| GCTAGACA | -0.156 |
| CCTGCGAG | -0.125 |
| GCCCTGCA | -0.244 |
| CTCCTGAA | -0.0675 |
| AACCGAAG | 0.0622 |
| AGACGTAA | -0.0505 |
| AAGATACC | 0.0698 |
| CGGCTGTA | -0.161 |
| CCAGACAC | -0.185 |
| CTCGGTCC | -0.125 |
| CGCCCAAG | -0.185 |
| TCGAATAA | 0.258 |
| CGGTTACA | 0.0406 |
| CGTGATAG | -0.0181 |
| CATTACCC | -0.128 |

| Sequence | PBM 8-mer E-score |
| --- | --- |
| CATCGCCC | -0.238 |
| CTAAACTA | 0.259 |
| ATTTTAAG | 0.225 |
| ACAGGCTA | -0.0843 |
| TGATTAAA | 0.27 |
| ACCGAGAT | -0.0838 |
| CACTCTCG | -0.245 |
| AAGGGCGT | -0.135 |
| AGGTAACG | -0.0912 |
| CATTTTCG | 0.126 |
| ATGTGTGA | 0.0741 |
| ATCTTTCC | -0.106 |
| GATACGTA | 0.038 |
| CCATGCCA | -0.134 |
| AGTGAAAG | 0.0564 |
| CAAGGTCA | -0.148 |
| ATTCTCGC | -0.0889 |
| AAGTAATC | 0.186 |
| ATCTTGGC | -0.136 |
| GAACAGTC | -0.0493 |
| AGAAAGAG | 0.00847 |
| CAGGATAG | -0.173 |
| AGGTGCCC | -0.338 |
| ATGAACAT | 0.121 |
| CAAACTAG | 0.076 |

| Sequence | PBM 8-mer E-score |
| --- | --- |
| CCCGTTTC | 0.0551 |
| AGCGCCAG | -0.311 |
| CTGAATGC | -0.0524 |
| ATCCATTG | 0.0602 |
| GGCATGGA | -0.132 |
| AGCACCCT | -0.0351 |
| GTTATGTA | 0.165 |
| ACTCAGGC | -0.167 |
| CCTGTCAA | -0.0939 |
| ATCCCGTG | -0.196 |
| AGGAGCTG | -0.244 |
| AAGGGCGA | -0.2 |
| TCCAGGGA | -0.208 |
| CACACTCC | 0.0189 |
| ACAGGGCG | -0.185 |
| CGGGAGAC | -0.225 |
| GCTCGGGA | -0.249 |
| AACATATC | 0.286 |
| ACGCTGAG | -0.15 |
| ACTCACCA | 0.0727 |
| TAATGGAA | 0.132 |
| CGAATCAC | -0.0955 |
| AAAATACC | 0.265 |
| AAGACCCC | -0.282 |
| AATCAACC | -0.0344 |

| Sequence | PBM 8-mer E-score |
| --- | --- |
| AGAAGTGC | -0.0659 |
| AGCAAGCT | -0.206 |
| GTGTTCTA | 0.0799 |
| ACGGCGTA | -0.0699 |
| ATTTGAGA | 0.124 |
| AAGGAACC | -0.128 |
| AAAAGTAT | 0.253 |
| CTAAGAGC | -0.0147 |
| AACCTCGA | -0.0439 |
| CTAAATTC | 0.115 |
| CGGTTCAC | -0.0321 |
| TCCGCACA | -0.0291 |
| CGTGGCGA | -0.235 |
| ATAAAAAA | 0.387 |
| GGGTACTA | -0.173 |
| AACGTTAG | 0.212 |
| CACTCCTA | -0.149 |
| ATGAGGTA | -0.0736 |
| GACTAAGA | 0.11 |
| AAGACGTA | 0.0119 |
| AAGCGGAT | 0.00854 |
| ATCAGTTA | 0.2 |
| CTTTTCTA | 0.155 |
| AGGTGGAT | -0.182 |
| ACGATGAT | 0.0286 |

| Sequence | PBM 8-mer E-score |
| --- | --- |
| CGATCCAG | -0.184 |
| GTTCGGCA | -0.007 |
| CTTCTAAA | 0.14 |
| TAGACTGA | -0.0853 |
| AGCGCGTG | -0.0178 |
| GCGGAGAC | -0.176 |
| GCCTAAAC | 0.00351 |
| ATGGCCGA | -0.243 |
| GGCGGCAA | -0.13 |
| TCGGGTAA | -0.0772 |
| CGGCCTGC | -0.296 |
| AGTAGTGC | -0.00221 |
| GCGAAGAA | 0.0778 |
| GTGTCCTA | -0.0256 |
| CGGAAGCC | -0.245 |
| AGTGGCGA | 0.0365 |
| GCAACATA | 0.203 |
| GTGTCTGA | -0.0547 |
| TGACACCA | -0.113 |
| ATTCCACG | 0.0399 |
| AACTTGGA | 0.104 |
| AAGCCGAC | -0.171 |
| AGGCCCAC | -0.331 |
| CGTTCAGC | -0.132 |
| GAATACGC | 0.106 |

| Sequence | PBM 8-mer E-score |
| --- | --- |
| ACCGTCAA | -0.181 |
| CCACCTCC | -0.334 |
| ACTTCCGA | 0.15 |
| AGGGCGAC | -0.211 |
| AACCGCGA | -0.0855 |
| CGTCATAG | -0.102 |
| GAACATAA | 0.256 |
| TCACCGCA | -0.105 |
| CCAGCTGG | -0.285 |
| GGGATGAC | -0.201 |
| AGTCAGTG | 0.0469 |
| AGGAAACC | -0.216 |
| ACACGGGG | -0.104 |
| GACGGAAA | 0.0719 |
| CTTGCCCA | -0.191 |
| CCGTAAAA | 0.0693 |
| GGGTAAAA | 0.0716 |
| AAATTTCG | 0.265 |
| AGCAGCCT | -0.257 |
| CTCTTACC | -0.0132 |
| TCGTCTCA | -0.132 |
| GCATTCGA | -0.0992 |
